Test results reported in ChEMBL document CHEMBL1201862, “PubChem BioAssay data set” (2004).
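In this assay, cells in 96-well plates receive the compound at five concentrations for 48 hours. Endpoints are linearly interpolated between the surrounding concentrations. GI50 is the concentration that inhibits growth by half.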 Calls of active or inactive are those of the source. No stated cut-off is given here; in the data, active = GI50 up to about 1.1 µM and inactive = higher.

System: NCI-H322M
Test: DTP human tumour cell line panel, 48 h

Row | SMILES | GI50
1 | O=c1c2c(oc3ccccc13)-c1ccccc1OC2 | inactive: 31.5 µM
2 | COc1ccc(C[C@H]2NC(=O)/C=C/C[C@@H]([C@H](C)[C@H]3O[C@@H]3c3ccccc3)OC(=O)[C@H](CC(C)C)OC(=O)[C@H](C)CNC2=O)cc1 | active: 2.62e-05 µM
3 | O=S(=O)(Nc1nc2ccccc2nc1Nc1cccc2ccccc12)c1ccccc1 | inactive: 25.8 µM
4 | O=S(O)c1cc(Cl)cc(Cl)c1OCc1ccccc1 | inactive: > 100 µM
5 | CCC12C=CCN3CC[C@]4(C(=C(C(=O)OC)[C@@H]1Nc1ncnc5c1ncn5C1OC(COC(C)=O)C(OC(C)=O)C1OC(C)=O)Nc1ccccc14)C32 (stereo partly drawn) | inactive: 4.06 µM
6 | C=CCCC(On1c(-c2ccc(Cl)cc2)csc1=S)c1ccccc1 (stereo not drawn) | inactive: > 100 µM
7 | C[C@]12CC/C(=N\O)C=C1CC[C@@H]1[C@@H]2CC[C@]2(C)C(=N/O)/C(=C/c3ccc([N+](=O)[O-])cc3)C[C@@H]12 | inactive: 11.5 µM
8 | Cc1cc2nc(O)c(CCC(=O)O)nc2cc1C | inactive: > 100 µM
9 | COC(=O)c1ccccc1C1CN=NC12Cc1cc(C)c(C)cc1C2=O (stereo not drawn) | inactive: 74 µM
10 | O=c1[nH]c(=O)c2c([nH]1)[nH]c1ccccc12 | inactive: > 100 µM
11 | COc1ccc2c3ccc4c(c3n(C)c2c1)C(=O)c1ccccc1C4=O | inactive: 48.2 µM
12 | COc1cc(C(=O)/C=C/c2ccc(OCC#N)cc2)cc(OC)c1OC | inactive: 28.6 µM
13 | C/C(CC(=O)Nc1cccc([N+](=O)[O-])c1)=N\NC(=O)CC#N | inactive: > 100 µM
14 | CC(C)C(=O)NS(=O)(=O)c1ccccc1 | inactive: > 100 µM
15 | Cc1ccnc2c1ccc1nc3ccccc3n12 | inactive: > 100 µM
16 | CSc1ncc2c(C#N)c3ccccn3c(=O)c2n1 | inactive: > 100 µM
17 | CC(C)OP(=O)(OC(C)C)C1=NN(c2ccc([N+](=O)[O-])cc2)C(P(=O)(OC(C)C)OC(C)C)=NN1c1ccc([N+](=O)[O-])cc1 | inactive: > 100 µM
18 | CCC(C)c1cnc(CC(C)C)c(=O)[nH]1 (stereo not drawn) | inactive: > 100 µM
19 | O=C(Cc1ccccc1)N/N=C(/c1nc2ccc([N+](=O)[O-])cc2nc1O)C(O)c1ccc(C(O)/C(=N/NC(=O)Cc2ccccc2)c2nc3ccc([N+](=O)[O-])cc3nc2O)cc1 (stereo not drawn) | inactive: > 100 µM
20 | COc1cc([C@@H]2c3cc4c(c(O)c3C[C@H]3COC(=O)[C@@H]32)OCO4)cc(OC)c1O | active: 0.0237 µM
21 | c1cc(-c2ccc(-c3ccsc3)s2)cs1 | inactive: > 100 µM

Row | SMILES | GI50
22 | O=C1C2CC=CCC2C(=O)N1n1c(-c2ccccc2)n[nH]c1=O (stereo not drawn) | inactive: > 100 µM
23 | COc1ccc(NC(=O)CC/C(CC(=O)c2ccco2)=N/NC(N)=S)cc1 | inactive: > 100 µM
24 | COc1ccc(C(C2C(=O)N(C)C(=O)N(C)C2=O)C(F)(F)C(=O)N(C)C)cc1 (stereo not drawn) | inactive: > 100 µM
25 | C/C(=C/CC[C@]1(CO)CC[C@]2(CO)[C@H](CC[C@@H]3[C@@]4(C)CC[C@H](OC5OCC(O)C(O)C5OC5OC(CO)C(O)C(O)C5O)C(C)(C)[C@@H]4CC[C@]32C)[C@H]1O)CO (stereo partly drawn) | inactive: > 100 µM
26 | C=CCc1cc(-c2cc(CC=C)c(O)c(CNCCCl)c2)cc(CNCCCl)c1O | inactive: 31.3 µM
27 | O=c1c2cccnc2ncn1CCCN1CCCCC1 | inactive: > 100 µM
28 | COc1cccc([C@@H]2CC(=O)c3cc4c(cc3N2)OCO4)c1 | inactive: > 100 µM
29 | C=C1C(=O)C23[C@H](O)C1CC[C@H]2[C@]12COC3(O)[C@@H](O)[C@@H]1C(C)(C)CC[C@@H]2O | inactive: 15.8 µM
30 | N=C(N)N/N=C/c1ccc(O)c(C(=O)O)c1 | inactive: > 100 µM
31 | Cc1cccc(N2C(=O)C(Cl)=C(Cl)C2=O)c1 | inactive: > 100 µM
32 | CC1(C)[C@@H]2CC[C@@]1(C)C1(S[S+]1[O-])C21Cc2ccccc2C1 (stereo partly drawn) | inactive: > 100 µM
33 | Cc1cc(O)c2c(c1)CC(O)C1=C2C(=O)c2c(O)ccc(OC3CC(O)C(OC4CC(OC5CCC(O)C(C)O5)C(O)C(C)O4)C(C)O3)c2C1=O (stereo not drawn) | inactive: 2.47 µM
34 | CC1(CC2=C(C(=O)NCCO[Si](C)(C)C(C)(C)C)C3(OCCO3)C2=O)OCCO1 | inactive: > 100 µM
35 | Clc1ccc(OCc2nnc3sc(-c4ccc(-c5ccc(Cl)cc5Cl)o4)nn23)cc1 | inactive: > 100 µM
36 | CC1=NN2CCC(=O)N=C2S1 | inactive: > 100 µM
37 | COc1nc2c(nc(N)n2C2OC(CO)C(O)C(O)C2O)c(=O)n1C (stereo not drawn) | inactive: > 100 µM
38 | CCCC(=O)NC1=C(Cl)C(=O)c2ccccc2C1=O | inactive: 15.1 µM
39 | CSc1c(C(=O)Nc2ccccc2)c(N)nn1-c1ccccc1 | inactive: > 100 µM
40 | c1ccc(-c2c[nH]c(SC(c3ccccc3)c3ccccc3)n2)cc1 | inactive: 23.7 µM
41 | CCOC(=O)C1(Cc2ccccc2)CCCCCN1 (stereo not drawn) | inactive: > 100 µM
42 | Nc1nc(O)c2c(ncn2CCO)n1 | inactive: > 100 µM

Row | SMILES | GI50
43 | O=[N+]([O-])c1cccc(C2=NN(c3ccccc3)C3c4ccccc4OCC23)c1 (stereo not drawn) | inactive: > 100 µM
44 | CCCCCCCCCCCCP(=O)(O)OCC(N)C(=O)O (stereo not drawn) | inactive: 24.3 µM
45 | CC1(C)C=C(/C=N/Nc2ccc([N+](=O)[O-])cc2)C(C#N)=C(O)C1(C#N)C#N | inactive: > 100 µM
46 | CC(C)=CC(=O)C1c2cccc(O)c2C(=O)c2c(O)cc(C)cc21 (stereo not drawn) | inactive: 2.25 µM
47 | Cc1ccc(C(=O)C#Cc2cn(C3CC(O)C(CO)O3)c(=O)[nH]c2=O)cc1 (stereo not drawn) | inactive: > 100 µM
48 | COC1(OC)C2(Cl)C(Cl)=C(Cl)C1(Cl)C1c3ccc(C(C)=O)c4cccc(c34)C12 (stereo not drawn) | inactive: 18 µM
49 | C=C(C=O)CCCC(C)[C@@H]1CCC23CC12CCC1[C@@]2(C)CCC(OC(C)=O)C(C)(C)C2CC(OC2OC(COC(C)=O)C(O)C(O)C2O)[C@]13C (stereo partly drawn) | inactive: 7.55 µM
50 | CN(C)CCNC(=O)c1cccc2c1Oc1cccc([N+](=O)[O-])c1O2 | inactive: 14.4 µM
51 | C=CCNC(=O)N1CC(C)C(=O)Nc2ccccc21 (stereo not drawn) | inactive: > 100 µM
52 | Cc1cc(C#N)c(Nc2c(C)cccc2[N+](=O)[O-])s1 | inactive: 25.3 µM
53 | ClCCN1CCC2(CC1)SSC1(CCN(CCCl)CC1)S2 | inactive: 84.9 µM
54 | COC1O[C@@H]2COC(C)(C)O[C@@H]2C(=O)N1Nc1ccc([N+](=O)[O-])cc1 (stereo partly drawn) | inactive: > 100 µM
55 | Cn1cc(NC(=O)Nc2cc(C(=O)Nc3cc(C(=O)Nc4cc(S(=O)(=O)O)c5cc(S(=O)(=O)O)cc(S(=O)(=O)O)c5c4)n(C)c3)n(C)c2)cc1C(=O)Nc1cc(C(=O)Nc2cc(S(=O)(=O)O)c3cc(S(=O)(=O)O)cc(S(=O)(=O)O)c3c2)n(C)c1 | inactive: > 100 µM
56 | C/N=c1\ss/c(=N\C(=S)N(C)C)n1C | inactive: > 100 µM
57 | CNC(=S)/N=C(\N)N(C)C | inactive: > 100 µM
58 | COc1cc(CNCc2cc(OC)c(OC)c(OC)c2)cc(OC)c1OC | inactive: > 10 µM
59 | COc1ccc(OC)c(NCC#N)c1 | inactive: > 100 µM
60 | Cc1nn(-c2ccccc2)c2nc(N3CCOCC3)nnc12 | inactive: 63.1 µM
61 | O=C1/C(=C/c2ccccc2)N=C(c2ccccc2)N1n1c(-c2ccccc2)nc2ccccc2c1=O | inactive: > 100 µM
62 | COC1=CCC2=C(CCN(C(=O)C3CC3)C2Cc2ccc(OC)c(O)c2)C1 (stereo not drawn) | inactive: 57.8 µM
63 | CC1CCC(C(C)(C)c2ccccc2)C(=O)C1 (stereo not drawn) | inactive: > 100 µM
